# From PubChem BioAssay AID488969 (Vanderbilt High Throughput Screening Facility, 2010)
# Whole data set: some 110,000 compounds, median “z-score” near -0.1, cut for the highest 2% near 2. The list shows a part of the results. Active and inactive are the calls of the source.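 Rule for the calls: active = z-score in the third read window above 3 or below -3; inactive = the rest.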
# Target: Metabotropic glutamate receptor 8 (Rattus norvegicus) (UniProt P70579)
# Experiment: mGluR8 Gi/Go-coupled signaling modulation – cell-based, rat, thallium flux, HTS, primary screen (AID 488969)
# Conditions: HEK293 rat mGluR8, GIRK (G protein-gated inwardly rectifying potassium channel) thallium flux, FluoZin2; at 10 µM; stronger effect = higher value; submaximal glutamate (EC20) added with thallium
# UniProt P70579, sequence (P70579 whole entry, looked up): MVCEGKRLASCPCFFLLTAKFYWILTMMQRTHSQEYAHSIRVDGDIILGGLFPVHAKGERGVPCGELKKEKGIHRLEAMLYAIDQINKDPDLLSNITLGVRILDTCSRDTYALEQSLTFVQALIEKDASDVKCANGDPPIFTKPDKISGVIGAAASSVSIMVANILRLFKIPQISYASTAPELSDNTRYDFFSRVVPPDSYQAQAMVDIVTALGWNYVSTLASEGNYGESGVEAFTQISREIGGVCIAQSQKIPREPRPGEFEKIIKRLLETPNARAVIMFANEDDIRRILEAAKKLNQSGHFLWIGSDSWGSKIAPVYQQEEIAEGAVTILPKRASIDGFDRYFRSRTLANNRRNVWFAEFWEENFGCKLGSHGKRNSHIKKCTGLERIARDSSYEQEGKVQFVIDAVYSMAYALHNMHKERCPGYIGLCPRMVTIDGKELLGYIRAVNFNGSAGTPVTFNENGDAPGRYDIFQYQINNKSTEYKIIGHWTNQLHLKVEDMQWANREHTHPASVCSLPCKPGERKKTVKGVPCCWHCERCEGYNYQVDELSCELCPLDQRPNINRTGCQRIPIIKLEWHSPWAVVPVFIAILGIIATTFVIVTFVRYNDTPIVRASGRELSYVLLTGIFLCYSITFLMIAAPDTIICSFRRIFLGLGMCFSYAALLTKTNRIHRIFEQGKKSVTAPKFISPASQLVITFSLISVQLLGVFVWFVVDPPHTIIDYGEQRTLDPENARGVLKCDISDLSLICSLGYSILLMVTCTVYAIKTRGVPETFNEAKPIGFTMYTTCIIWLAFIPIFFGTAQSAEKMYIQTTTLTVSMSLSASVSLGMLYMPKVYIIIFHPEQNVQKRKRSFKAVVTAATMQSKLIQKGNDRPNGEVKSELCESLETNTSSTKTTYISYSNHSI
row,Compound,z-score
1,O=C(Nc1ccccc1N1CCOCC1)c1ccc([N+](=O)[O-])cc1,-0.171
2,Cc1ccc(OCC(=O)Nn2c(C)nc3ccccc3c2=O)c(C(C)C)c1,-0.06
3,COc1cccc(-c2nnc(NC(=O)C(C)C)o2)c1,0.295
4,CCc1cccc(CC)c1NC(=O)NC1CCCCC1,-0.115
5,Cc1ccc(C(=O)C(C)OC(=O)c2cc3cc([N+](=O)[O-])ccc3oc2=O)cc1 (centres undefined),-0.476
6,CCN(CC)S(=O)(=O)c1ccc(N2CCN(S(=O)(=O)c3ccc4c(c3)OCCO4)CC2)nc1,0.0737
7,Cc1ccc(C(=O)C2COC(=O)C2)cc1 (centres undefined),0.417
8,CC1(C)Cc2c(C#N)c(N)sc(=S)c2CS1,-0.529
9,Cc1ccccc1-c1ccc(=O)n(CC(=O)Nc2ccc(C(=O)N3CCCC3)cc2)n1,0.0513
10,Cc1cc(NC(=O)CS(=O)(=O)c2cn(Cc3cccc(F)c3)c3ccccc23)no1,-1.12
11,COc1ccc(-c2cc3ccc(OCc4nn[nH]n4)cc3oc2=O)cc1,0.104
12,O=C(NCCN1CCOCC1)c1cc(=O)[nH]c2ccc(Br)cc12,-0.169
13,COc1ccc(OC)c(C(c2nnnn2Cc2ccccc2)N2CCN(C)CC2)c1 (centres undefined),-0.291
14,COc1ccc(C(C)(C)C)cc1NC(=O)CNc1cccc2ccccc12,0.195
15,c1ccc(-c2nn3c(Cn4nnc5ccccc54)nnc3s2)cc1,-0.467
16,COC(=O)c1scc(C)c1NC(=O)Nc1ccccc1,0.035
17,CC(=O)Nc1sc(NC(=O)c2ccc(Cl)cc2)nc1-c1cccs1,-0.664
18,CCOC(=O)CSc1ccc2nnc(-c3cccs3)n2n1,0.353
19,COc1ccc(CNC(=O)COc2ccc(S(=O)(=O)NC(C)C)cc2)cc1,0.46
20,Cc1nc2ncccn2c1-c1csc(NCc2ccco2)n1,-0.504
21,O=C(COc1ccccc1F)Nc1ccc(S(=O)(=O)NCc2ccco2)cc1,0.0184
22,CCN(CC)S(=O)(=O)c1ccc(OC(C)C)c(NC(=O)c2c3c(nc4ccccc24)CCN(Cc2ccccc2)C3)c1,0.12
23,O=C(N/N=C/c1ccco1)/C(=C/c1cccc([N+](=O)[O-])c1)NC(=O)c1ccccc1,-0.408
24,Cc1ccc(NC(=O)CSc2nnc(-c3cnccn3)n2Cc2ccco2)cc1C,-0.0937
25,Cc1cc(NC(=O)CSc2nc3ccccc3n2CC(=O)N2CCCCC2)no1,0.0584
26,O=C1CC(c2cc([N+](=O)[O-])ccc2Cl)c2c(ccc3ccccc23)N1 (centres undefined),0.243
27,Cc1[nH]c2ccccc2c1C(=O)CN1C(=O)NC(C)(c2ccc(Cl)cc2Cl)C1=O (centres undefined),-0.0102

row,Compound,z-score
1,O=C(COc1ccc(Br)cc1)Nc1ccc(-c2nnc(-c3ccco3)o2)cc1,-0.101
2,CC(C)(C)C(=O)NCC12C=CC(O1)C1C(=O)N(c3ccccc3)C(=O)C12 (centres undefined),0.315
3,CCOC(=O)CCn1c(=O)c2c(nc(Br)n2Cc2ccccc2)n(C)c1=O,0.203
4,O=C(CSc1nnc(-c2ccco2)n1Cc1ccco1)Nc1ccccc1,-0.235
5,C=CCc1c(OC(C)=O)c2ccccc2n(C)c1=O,-0.353
6,CCOC(=O)Nc1sc2nc(C)cc(C)c2c1-n1cccc1,0.355
7,C=CCNC(=O)CN(c1ccccc1OCC)S(=O)(=O)c1ccc(C)cc1,0.0192
8,O=C(CNC(=O)c1cccs1)c1ccc(F)cc1,0.125
9,Cc1ccccc1CSc1nccn1-c1ccccc1,-1.59
10,COc1ccc(NC(=O)Cn2cc(S(=O)(=O)Cc3ccccc3)c3ccccc32)c(OC)c1,-0.139
11,CCCOc1ccc(CSc2ncn[nH]2)cc1,0.502
12,Cc1ccnc(NC(=O)CSc2cc(=O)n(C)c3ccccc23)c1,0.327
13,Cc1c(CCOC(=O)C2C3CC4CC(C3)CC2C4)sc[n+]1CC(=O)c1ccc(Br)cc1 (centres undefined),2.48
14,CCOc1ccc(NC(=O)CSc2nc(C)c3c(c2C#N)CCCC3)cc1,0.0475
15,Cc1ccc(CNc2oc(C)nc2C#N)cc1,-0.0991
16,CCOC(=O)Cc1csc(NC(=O)CSc2nnc(C(C)C)n2CC)n1,0.0208
17,CN1CCC(=NNc2ccc(S(=O)(=O)N3CCOCC3)cc2[N+](=O)[O-])CC1,-0.269
18,Cc1ccsc1C1C2=C(CCCC2=O)Nc2ncnn21 (centres undefined),-0.47
19,Cc1ccc(-n2c(N)c(-c3nc4ccccc4n3C)sc2=S)cc1,0.836
20,N=C1/C(=C/c2cccs2)C(=O)N=C2SN=C(SCc3ccccc3)N12,active: 9.53
21,COc1cc(NC(=O)Cn2c(-c3cncs3)nc3ccccc32)cc(OC)c1OC,0.295
22,Cc1ccccc1NC(=S)C1=C(O)c2sccc2N(C)S1(=O)=O,-0.144
23,Cc1nn2c(N3CCN(c4ccccn4)CC3)cc(C(C)C)nc2c1-c1ccccc1,-0.604
24,Cc1ccc(-c2ccc(=O)n(CC(=O)N3CCN(c4cc(Cl)ccc4C)CC3)n2)cc1,-0.335
25,O=C(Nc1ccc2nc(-c3ccccc3)[nH]c2c1)c1ccco1,-0.245
26,CCN(CC)C(=O)CSc1nc2ccccc2c(=O)[nH]1,0.0717
27,CC(C)NC(=O)C12CC3CC(C1)CC(n1cnc(Cl)n1)(C3)C2,-0.0733
